# In paper PMC4336329 (PLoS ONE, 2015):
# The campaign covered roughly 310,000 compounds. About 2,200 (0.71%) showed an effect of 50% or more. Effects have a minus sign here. The list shows a part of the results.
# Biological target: human ether-à-go-go-related gene (hERG) potassium channel (human, UniProt Q12809)
# Assay: primary screen, population patch clamp on CHO cells stably expressing hERG
# human ether-à-go-go-related gene (hERG) potassium channel, sequence (Q12809 whole entry, looked up): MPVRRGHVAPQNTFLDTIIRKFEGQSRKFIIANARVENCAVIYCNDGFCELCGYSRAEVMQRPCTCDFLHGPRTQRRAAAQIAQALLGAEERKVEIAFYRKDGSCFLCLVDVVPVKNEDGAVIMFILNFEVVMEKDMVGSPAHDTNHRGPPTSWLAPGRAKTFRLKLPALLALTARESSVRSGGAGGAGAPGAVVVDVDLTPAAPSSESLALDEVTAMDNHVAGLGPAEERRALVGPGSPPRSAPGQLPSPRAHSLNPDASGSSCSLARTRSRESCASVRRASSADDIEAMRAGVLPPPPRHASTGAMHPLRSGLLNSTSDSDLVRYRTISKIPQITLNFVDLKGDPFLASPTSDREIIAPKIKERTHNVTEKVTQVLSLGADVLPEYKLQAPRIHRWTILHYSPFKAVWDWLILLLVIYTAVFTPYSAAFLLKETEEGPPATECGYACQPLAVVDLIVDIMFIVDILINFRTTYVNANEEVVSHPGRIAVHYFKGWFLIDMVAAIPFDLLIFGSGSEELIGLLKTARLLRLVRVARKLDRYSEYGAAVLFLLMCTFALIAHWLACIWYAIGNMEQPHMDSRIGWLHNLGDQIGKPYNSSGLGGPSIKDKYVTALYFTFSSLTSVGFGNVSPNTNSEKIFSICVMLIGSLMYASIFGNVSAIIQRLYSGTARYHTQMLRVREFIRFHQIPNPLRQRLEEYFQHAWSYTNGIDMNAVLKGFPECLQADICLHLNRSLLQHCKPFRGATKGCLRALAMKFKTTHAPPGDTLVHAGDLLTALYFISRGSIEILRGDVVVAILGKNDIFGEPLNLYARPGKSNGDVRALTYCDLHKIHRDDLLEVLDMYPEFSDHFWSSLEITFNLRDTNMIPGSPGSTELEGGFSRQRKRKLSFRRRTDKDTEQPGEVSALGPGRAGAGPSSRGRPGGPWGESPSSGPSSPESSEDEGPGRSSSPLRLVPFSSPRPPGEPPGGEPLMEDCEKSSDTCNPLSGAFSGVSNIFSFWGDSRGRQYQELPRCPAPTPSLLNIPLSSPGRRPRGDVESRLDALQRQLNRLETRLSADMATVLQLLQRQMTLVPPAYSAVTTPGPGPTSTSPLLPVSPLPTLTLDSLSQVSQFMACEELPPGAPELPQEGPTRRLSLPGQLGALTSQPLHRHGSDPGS
row,SMILES,"hERG current change (%, negative = inhibition) at 1uM"
1,COc1ccc(C2NC(=O)NC(O)(C(F)(F)F)C2C(=O)c2ccc(F)cc2)cc1 (stereo not shown),7.9%
2,COc1ccc(CC(=O)NCC2(N3CCCCC3)CCCCC2)cc1,11.2%
3,CC1CCN(S(=O)(=O)c2nnc(NC(=O)c3ccccc3Br)s2)CC1,-3.65%
4,Cc1ccsc1C1NC(=O)c2ccccc2N1 (stereo not shown),3.74%
5,Cc1cccc(NC(=O)CNC(=O)COC(=O)c2ccc(C(C)(C)C)cc2)c1C,0.857%
6,O=c1[nH][nH]cc1C=Nc1cc(Cl)ccc1O,-1.23%
7,CCCN1CCN(CCCNC(=O)CCN2C(=O)COc3ccccc32)CC1,14.9%
8,Cc1ccc(NC(=O)C2CCN(S(=O)(=O)c3cccc4cccnc34)CC2)nc1,4.21%
9,C=CCOc1ccc(CNc2nn[nH]n2)cc1,18.1%
10,Cc1ccc(Cc2nc(-c3ccccn3)no2)cc1,13.7%
11,CCc1ccc(C(=O)NNC(=O)C2CC(=O)N(c3ccc4c(c3)OCCO4)C2)cc1 (stereo not shown),3.77%
12,O=C1C2=C(SCCS2)C(=O)N1CCCO,-2.17%
13,CN(C)CCN(Cc1ccco1)C(=O)c1oc2ccccc2c1NC(=O)COc1ccccc1,-79.3%
14,N#Cc1c(N)n[nH]c1CCCN,6.66%
15,CCCn1c(SCC(=O)Nc2ccc3c(c2)OCCO3)nnc1-c1ccco1,-8.32%
16,CSc1nc(C)cc(OCNC(=O)c2cccs2)n1,7.64%
17,O=C1c2cccnc2C(Nc2ccc(S(=O)(=O)N3CCCCCC3)cc2)N1Cc1ccccc1 (stereo not shown),10.1%
18,CN1C(=O)c2cccc3c(S(=O)(=O)N(C)C)ccc1c23,10.9%
19,NC(=O)c1cc(N2CC2)c([N+](=O)[O-])cc1[N+](=O)[O-],9.05%
20,CCOC(=O)[C@H]1[C@H]2COc3ccc(C)cc3[C@@H]2N2C(=O)CN(Cc3ccc(OC)cc3)C(=O)[C@@]12C,14%
21,Nc1cc(=O)[nH]c(SCC(=O)N2N=C(c3ccc(Cl)cc3)CC2c2ccco2)n1 (stereo not shown),8.46%
22,COC(=O)C1=C(c2cccc(OCc3ccccc3)c2)C[C@@H]2CC[C@H]1N2C(=O)NCc1ccc(Cl)cc1,14.9%

row,SMILES,"hERG current change (%, negative = inhibition) at 1uM"
1,O=C(NC1CCCC1)c1cnc2n(c1=O)CCS2,10.8%
2,CCOc1ccc(C2CC(=O)NC2=O)cc1 (stereo not shown),3.63%
3,COCCN1C(=O)/C(=C/c2ccc(Oc3ccc([N+](=O)[O-])cn3)c(OC)c2)SC1=Nc1ccccc1,12.8%
4,CCOc1ccc(N(CC(=O)NCc2ccccc2)C(=O)Cn2nnc(-c3ccc(C)o3)n2)cc1,7.76%
5,COc1ccc(CC(NC(C)=O)C(=O)NC2CCN(c3nnnn3-c3ccccc3)CC2)cc1 (stereo not shown),11.7%
6,Cl.O=C(O)c1cc([N+](=O)[O-])cc([N+](=O)[O-])c1N1CCN(c2cccc(C(F)(F)F)c2)CC1,17.2%
7,COc1cccc(NC(=O)NC(C)C2CC3CCC2C3)c1 (stereo not shown),12.3%
8,C/C(CC(=O)Nc1cccc(Cl)c1Cl)=N\NC(=O)c1ccccc1C,8.35%
9,CC(c1ccco1)N(C(=O)c1ccc(C#N)cc1)c1ccccn1 (stereo not shown),5.5%
10,Cc1cccc(NC(=S)NC(C)C(c2cccs2)N2CCN(C)CC2)c1C (stereo not shown),-11.1%
11,COc1ccccc1-n1c(CNC(=O)c2cccc([N+](=O)[O-])c2C)n[nH]c1=S,15.5%
12,O=C(NNC(=O)c1csc(-c2cccnc2)n1)c1ccccc1,-0.718%
13,Cn1cccc1-c1cc(C(=O)N/N=C/c2ccc(F)cc2)[nH]n1,6.62%
14,O=C(NC(=S)Nc1ccc(Cl)cn1)c1cc([N+](=O)[O-])ccc1N1CCOCC1,13.7%
15,O=C(C[n+]1cc(-c2ccc(Cl)cc2)n2c1CCC2)N1c2ccccc2Sc2ccccc21.[Cl-],7.01%
16,Cc1ccc(C(=O)CSc2nc3ccccc3c(=O)n2-c2ccccc2)s1,6.06%
17,CC1(C(=O)O)COC(c2ccc(Cl)cc2)OC1 (stereo not shown),-7.39%
18,Cc1cccc(NC(=O)CCN2C(=O)C3C4C=CC(C4)C3C2=O)n1 (stereo not shown),8.01%
19,CN1CCN(S(=O)(=O)c2ccc(N(C)Cc3cccs3)nc2)CC1,9.23%
20,Cc1ccc(CS(=O)Cc2ccc(C(=O)NC3CCC(C)CC3)o2)cc1 (stereo not shown),14%
21,CC(=O)Nc1sc(N/N=C/c2ccccc2)nc1-c1ccc(C)cc1,11.7%
22,N#Cc1cc2ccccc2nc1SCc1cccnc1,-8.94%

row,SMILES,"hERG current change (%, negative = inhibition) at 1uM"
1,Cc1ccc(S(=O)(=O)NC(=O)c2cc(C)n(CC(c3ccccc3)N(C)C)c2C)cc1 (stereo not shown),6.34%
2,Cc1ccc(C)c(OCCC(=O)OCC(=O)NC2CCCC2)c1,9.05%
3,CC(Sc1nnc2c(n1)[nH]c1ccccc12)C(=O)N(C)C1CCCCC1 (stereo not shown),8.41%
4,CCCc1nn2c(=O)cc(CSCC(=O)Nc3ccc(C)cc3)nc2s1,12.8%
5,O=C(CCNC(=O)c1ccco1)NCCN1C(=O)S/C(=C\c2ccc(F)cc2)C1=O,12.8%
6,NS(=O)(=O)c1ccc(Nc2ccccc2)c([N+](=O)[O-])c1,8.08%
7,CCOc1cc(/C=C/c2cccc[n+]2C)ccc1O.[I-],16.8%
8,CS(=O)(=O)Nc1cccc(C(=O)CC2(O)C(=O)Nc3ccc(Br)cc32)c1 (stereo not shown),13%
9,CCC(=O)N1CCN(c2ccc(NC(=S)NC(=O)c3ccc(OC)c([N+](=O)[O-])c3)cc2)CC1,7.96%
10,CCO[C@H]1OC(C(=O)N2CCOCC2)=C[C@@H](c2ccc(Br)cc2)[C@@H]1CCCO,-1.89%
11,Cl.O=C(c1cc2ccccc2o1)N1CCN(Cc2ccccc2)CC1,-5.81%
12,COc1nccc(-c2ccc(F)cc2)c1C#N,16.9%
13,CCC1=NNc2cccc3c(OC)ccc1c23,8.13%
14,CCCN1CNC(=S)N(c2cccc(C)c2C)C1,-0.0042%
15,COCCn1c(-c2ccccc2)cc(C(=O)O)c1C,14.7%
16,Cc1c(-c2ccccc2)nc2ccccc2c1C(=O)O,10.1%
17,Cc1c(C(=O)NCc2ccoc2)oc2ccc3c(c12)C(=O)CC(C)(C)O3,9.59%
18,CN(CC1COc2ccccc2O1)C(=O)c1cc(COc2c(F)cccc2F)on1 (stereo not shown),8.21%
19,CCOC(=O)C1CCN(C(C)=C2C(=O)c3ccccc3C2=O)CC1,2.4%
20,CCc1ccc(C(=O)Nn2c(C)nc3ccccc3c2=O)cc1,8.2%
21,CN(C)c1ccc(/C=C2/C(=O)NC(=O)N(CCc3ccc(F)cc3)C2=O)cc1,10.4%
22,O=C(CCSCc1cccc(F)c1)NCc1ccc(F)cc1,-9.29%

row,SMILES,"hERG current change (%, negative = inhibition) at 1uM"
1,Clc1ccc2nc3ccccn3c2c1,7.9%
2,Cc1ccc(-n2nc(C)c(C(C)(O)C(F)(F)F)c2N)cc1 (stereo not shown),0.0166%
3,O=C(Nc1cccc2cccnc12)c1ccc(Cl)cc1Cl,14.1%
4,N#Cc1ccccc1S(=O)(=O)N1CCN(C(=O)Cc2coc3cc(O)ccc23)CC1,3.12%
5,Cc1ccc(C)c(S(=O)(=O)N2CCN(C(=O)CCNS(=O)(=O)c3ccccc3)CC2)c1,8.13%
6,CCOC(=O)c1csc(-c2ccc([N+](=O)[O-])cc2)n1,4.25%
7,CCC1COCCS(=O)(=O)N1Cc1ccccc1F (stereo not shown),-2.03%
8,O=c1cc(COc2ncnc3c(Cl)cc(Cl)cc23)nc2sccn12,2.24%
9,CN(C(=O)c1ccc2c(=O)n3c(nc2c1)CCCCC3)c1ccccc1F,-17.7%
10,C=CCNc1oc(-c2ccc(OC)cc2)nc1C#N,8.7%
11,COc1ccc(S(=O)(=O)N2CCCCC2)cc1NC(=O)c1ccc2c(c1)OCO2,12.4%
12,COc1ccc(C(=O)N2CCN(c3ccccn3)CC2)cc1[N+](=O)[O-],5.08%
13,COP(=O)(/C=C(\Cl)c1ccccc1)/C=C(\Cl)c1ccccc1,10%
14,CC(=O)Nc1ccc(S(=O)(=O)Nc2cccc(-c3cn4cccnc4n3)c2)cc1,14.4%
15,COC(=O)Nc1ccc(S(=O)(=O)N2CCCC(C(=O)O)C2)cc1 (stereo not shown),19.9%
16,CCCn1c(SCC(=O)c2cc(C)ccc2C)n[nH]c1=O,6.97%
17,CCC(=O)Nc1cccc(C2=NOC3(C2)C[C@@H](C(N)=O)N(C(=O)C(c2ccccc2)c2ccccc2)C3)c1 (stereo partly shown),10.7%
18,CC(C)OCCCNC(=O)CCN1C(=O)COc2ccccc21,13.4%
19,O=C(N/N=C/c1ccc(F)cc1)c1cccc(NC(=O)c2ccc(F)cc2)c1,0.21%
20,O=C(Nc1cccnc1)Nc1cccc(F)c1,16.1%
21,O=c1[nH]c(SCc2nc3ccccc3c(=O)n2-c2ccccc2C(F)(F)F)nc2ccccc12,7.05%
22,CC(=O)c1c(C)[nH]c(C(=O)OCC(=O)Nc2c(C)cccc2C)c1C,15.9%
